Results: a collection of fitness landscapes (doi:10.1126/science.1257360)
The other results are listed elsewhere or left out.

B1: PhoQ; a variant is named by its letters at X, in order, P23837 (parent)
chain: MKKLLRLFFPLSLRVRFLLATAAVVLVLSLAYGMVALIGYSVSFDKTTFRLLRGESNLFYTLAKWENNKLHVELPENIDKQSPTMTLIYDENGQLLWAQRDVPWLMKMIQPDWLKSNGFHEIEADVNDTSLLLSGDHSIQQQLQEVREDDDDAEMTHSVAVNVYPATSRMPKLTIVVVDTIPVELKSSYMVWSWFIYVLSANLLLVIPLLWVAAWWSLRPIEALAKEVRELEEHNRELLNPATTRELTSLVRNLNRLLKSERERYDKYRTTLTDLTHSLKTPLXXLQXXLRSLRSEKMSVSDAEPVMLEQISRISQQIGYYLHRASMRGGTLLSRELHPVAPLLDNLTSALNKVYQRKGVNISLDISPEISFVGEQNDFVEVMGNVLDNACKYCLEFVEISARQTDEHLYIVVEDDGPGIPLSKREVIFDRGQRVDTLRPGQGVGLAVAREITEQYEGKIVAGESMLGGARMEVIFGRQHSAPKDE

Variants of: B1
Assay: enrichment ratio after two sorts for PhoP signalling (ratio (wild type AVST 3.29)); higher = more functional
Conditions: with PhoP (E. coli)

Variant | enrichment ratio
EMTL | ≤ 0.25
INML | 8.36
WPVG | ≤ 0.25
AESW | ≤ 0.25
SLVT | 0.291
LSRC | ≤ 0.25
DKII | ≤ 0.25
IKFA | ≤ 0.25
MGRQ | ≤ 0.25
PQIE | ≤ 0.25
RVPP | ≤ 0.25
EFTH | ≤ 0.25
MICW | ≤ 0.25
FLFL | ≤ 0.25
SFTW | ≤ 0.25
HTHM | ≤ 0.25
MPCV | ≤ 0.25
PWRE | ≤ 0.25
NFRP | ≤ 0.25
WQPT | ≤ 0.25
NSAA | ≤ 0.25

Variant | enrichment ratio
KEHH | ≤ 0.25
ESKV | ≤ 0.25
TQLA | 4.57
LMLW | ≤ 0.25
SVQI | 0.298
IIYL | ≤ 0.25
RMVP | ≤ 0.25
SCKV | ≤ 0.25
IFWP | ≤ 0.25
WSDQ | ≤ 0.25
SPVC | ≤ 0.25
DWII | ≤ 0.25
DSMA | ≤ 0.25
YMWM | ≤ 0.25
GRAA | ≤ 0.25
RQVQ | ≤ 0.25
PPHT | ≤ 0.25
YNNL | ≤ 0.25
PDMT | ≤ 0.25
RYAP | ≤ 0.25
NRRF | ≤ 0.25

Variant | enrichment ratio
IATI | ≤ 0.25
ASQF | ≤ 0.25
KMRN | ≤ 0.25
DAIC | ≤ 0.25
QKCW | ≤ 0.25
KNMR | ≤ 0.25
NWDR | ≤ 0.25
NWHF | ≤ 0.25
KCHR | ≤ 0.25
RRVT | ≤ 0.25
LWVT | ≤ 0.25
IGDG | ≤ 0.25
AWMP | ≤ 0.25
PDSG | ≤ 0.25
RALS | ≤ 0.25
VIGF | ≤ 0.25
ADYD | ≤ 0.25
NFWK | ≤ 0.25
FGAR | ≤ 0.25
NTES | ≤ 0.25
LYEE | ≤ 0.25

Variant | enrichment ratio
SAND | ≤ 0.25
WKQQ | ≤ 0.25
YFTA | ≤ 0.25
VPQW | ≤ 0.25
YVLW | ≤ 0.25
LCWY | ≤ 0.25
IMYM | ≤ 0.25
QETY | ≤ 0.25
QEAG | ≤ 0.25
TEIS | 11.4
GRFP | ≤ 0.25
KGHQ | ≤ 0.25
HEPL | ≤ 0.25
AAYR | ≤ 0.25
QHHC | ≤ 0.25
GCDF | ≤ 0.25
HHHR | ≤ 0.25
HSLV | 8.27
EAPR | ≤ 0.25
WVMV | ≤ 0.25
YYSI | ≤ 0.25
